Series [1] can be described thus: PK/toxicokinetics of KM-001 via IV and topical routes in minipig.
The next series deals with minipig. Briefly: Dermal irritation (modified Draize test) and clinical observations, topical KM-001 ointment in minipig.
For series [2], the system named is Escherichia coli WP2 uvrA. As to the kind of experiment: Bacterial mutation assay (reverse mutation), Escherichia coli. To be noted: Escherichia coli, absence or presence of S9 metabolism.
The test system of series [3] is Salmonella typhimurium TA1535, TA1537, TA98, TA100. As to the kind of experiment: Bacterial mutation assay (reverse mutation), Salmonella typhimurium.
The subject of series [4] is nHEK cells transfected with TRPV3 mutant. As to the kind of experiment: Keratinocyte Involucrin mRNA expression in TRPV3 mutant transfected cells (QPCR). Format: cell-based, human. Particulars: 1 μM KM-001, nHEK transfected with TRPV3 mutant, normalized to HPRT. As to the method:
Involucrin expression levels were measured by QPCR using qPCRBIO Fast qPCR SyGreen Blue Mix, Hi-ROX (cat. #PB20.16-20). […] Involucrin expression levels were normalized to HPRT expression levels in each sample.

For a further series, the system named is Gottingen minipigs. Briefly: 7-day preliminary dermal tolerance/toxicity study in minipigs. Particulars: KM-001 Ointment 0.1, 0.3, 1% w/w, twice daily dermal, 7 days, minipigs.

SMILES strings stand for the structures. Where only a bound is given, the exact number is not on record here.

Usually Tmax stands for the time from dosing to the highest level.

Turning to `O=C(c1ccc(F)cn1)N1CCC(c2ccc(-c3ccccc3C3CC3)cc2CO)C1` (stereo not drawn) [KM-001], the concentration at 24 h in series [1] (male, minipig, plasma, iv, 0.5 mg/kg) is < 0.3 ng/mL. This molecule also returned a concentration at 24 h in series [1] (male, minipig, plasma, iv, 8 mg/kg) of 61.6 ng/mL. Moreover, in series [1] (male, minipig, plasma, iv, 8 mg/kg, Apparent maximum concentration time (tmax), IV bolus, 0.5 and 8 mg/kg), the Tmax was 5 min. The “KM-001 in plasma after topical application (skin to systemic exposure)” value in series [1] (topically treated pig, ointment 0.1-1%) is “no skin to systemic exposure observed”. For the same molecule, the signs of irritation result in the series with minipig (KM-001 ointments at all strengths, topical) is “None of the pigs showed signs of irritation”. Besides, the abnormal clinical signs entry in the series with minipig (topical and IV KM-001, study period) is “No abnormal clinical signs were observed”. The “induction of reverse mutation” value in series [2] was “does not induce reverse mutation”. The “toxicity or increases in revertant numbers, toxicity test” value in series [3] (50.0-5000 μg/plate, all five tester strains (incl. E. coli WP2 uvrA), absence or presence of S9) was “No toxicity or relevant increases in revertant numbers were observed”. Further, the “toxicity or increases in revertant numbers, Main Assay” value in series [3] (62.5-1000 μg/plate, plate incorporation, all five tester strains (incl. E. coli WP2 uvrA), absence or presence of S9) is “No toxicity or relevant increases in revertant numbers were observed”. The “induction of reverse mutation” value in series [3] (Salmonella typhimurium, absence or presence of S9 metabolism) is “does not induce reverse mutation”. Further, the “Involucrin mRNA expression” value in series [4] is given as “did not affect involucrin expression”. Also, in the series with Gottingen minipigs, the “Clinical Chemistry” value is given as “No changes were recorded”, the Coagulation result was “No changes were recorded”, the Haematology result is recorded as “No relevant changes were observed” and the Urinalyses result was “No changes were recorded”.
